# Assay results taken from PubChem BioAssay (NCATS).
# Inconclusive means that the source gave no clear call. Such entries were picked first, then a sample of the others. Potencies of inconclusive entries are left out as doubtful fits. The source made the active and inactive calls. Calls follow the shape of the dose curve; as a rule, active = well fitted curve in the direction sought with a large enough effect; inconclusive = small, poorly fitted or top-dose-only effect, or another doubt; inactive = no such curve, though single readings can be large; an effect the other way counts as inactive or inconclusive.
# Tests used:
# [1] = target: Rap guanine nucleotide exchange factor 3 (Homo sapiens) (UniProt O95398); assay: Confirmatory qHTS for antagonist of cAMP-regulated guanine nucleotide exchange factor 3 (EPAC1) (AID 1645880); settings: EPAC1 Rap1B-BODIPY-GDP exchange, fluorescence; activity, negative = inhibition: at 115 µM (top of the series); also: nearly all actives have a fitted effect of over 55% in size;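 as to activity, negative = inhibition: plate controls were DMSO only for no effect and full effect of the ATA control for full effect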
# Summary of the method: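 Released BODIPY-GDP fluoresces less than Rap1-bound BODIPY-GDP; the signal is followed at 480/540 nm at 5-min intervals over 30 min, after 5 min at room temperature. Reactions contain 100 nM EPAC1, 250 nM RAP1B-BODIPY-GDP and 50 uM GDP; results are normalized to ATA and DMSO.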
# [2] = target: Rap guanine nucleotide exchange factor 3 (Homo sapiens) (UniProt O95398); assay: Confirmatory qHTS for agonist of cAMP-regulated guanine nucleotide exchange factor 3 (EPAC1) (AID 1645881); settings: EPAC1 Rap1B BODIPY-GDP exchange fluorescence; activation: at 154 µM (top of the series), 100% = cAMP control response; also: nearly all actives have a fitted effect of over 75% in size
# [3] = target: Rap guanine nucleotide exchange factor 4 (Homo sapiens) (UniProt Q8WZA2); assay: Confirmatory qHTS for agonist of cAMP-regulated guanine nucleotide exchange factor 4 (EPAC2) (AID 1645884); settings: EPAC2 GEF activity, Rap1B-BODIPY-GDP fluorescence; activation: at 154 µM (top of the series), percent relative to cAMP agonist control;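 also: nucleotide exchange releases bodipy-GDP from Rap1 and this lowers its fluorescence; nearly all actives have a fitted effect of over 65% in size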; as to activation: % is scaled to controls: 0 for no effect and ±100 for the full control effect
# [4] = target: Rap guanine nucleotide exchange factor 4 (Homo sapiens) (UniProt Q8WZA2); assay: Confirmatory qHTS for antagonist of cAMP-regulated guanine nucleotide exchange factor 4 (EPAC2) (AID 1645885); settings: activity change, negative = inhibition: at 12.7 µM (top of the series) unless noted; also: nearly all actives have a fitted effect of over 25% in size; as to activity change, negative = inhibition: % is scaled to controls: 0 for no effect and ±100 for the full control effect
# [5] = target: Rap guanine nucleotide exchange factor 3 (Homo sapiens) (UniProt O95398); assay: Counterscreen qHTS for agonist of cAMP-regulated guanine nucleotide exchange factor 3 (EPAC1) (AID 1645889); settings: EPAC1 Rap1B-BODIPY-GDP exchange, fluorescence; activation: at 154 µM (top of the series) unless noted; also: nearly all actives have a fitted effect of over 40% in size; as to activation: % of control where 0% means no effect
# Summary of the method: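 Measured: fluorescence of BODIPY-GDP bound to Rap1B, which falls as exchange proceeds. Conditions include 50 uM competing GDP, 5 and 30 min reads, and a later cAMP challenge for antagonist detection.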
# [6] = target: Tumor susceptibility gene 101 protein (Homo sapiens) (UniProt Q99816); assay: qHTS Assay for Iinhibitors of HIV-1 Budding by Blocking the Interaction of PTAP/TSG101: Hit Validation (AID 651600); also: nearly all actives have a fitted effect of over 70% in size; as to activity change, negative = inhibition: % is scaled to controls: 0 for no effect and ±100 for the full control effect
# Summary of the method: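 Tsg101 binding domain 10 uM + FITC-PTAP peptide 50 nM (final), 10 mM HEPES pH 7.5/0.15 M NaCl/0.01% Tween 20/3 mM EDTA/0.1 mM TCEP; 20 min RT; FP read, FITC filters.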
# Potency is read from the fitted curve at half-maximal effect; tags tell the direction and shape of the fitted curve.
# Chain of UniProt O95398 (O95398 whole entry, looked up): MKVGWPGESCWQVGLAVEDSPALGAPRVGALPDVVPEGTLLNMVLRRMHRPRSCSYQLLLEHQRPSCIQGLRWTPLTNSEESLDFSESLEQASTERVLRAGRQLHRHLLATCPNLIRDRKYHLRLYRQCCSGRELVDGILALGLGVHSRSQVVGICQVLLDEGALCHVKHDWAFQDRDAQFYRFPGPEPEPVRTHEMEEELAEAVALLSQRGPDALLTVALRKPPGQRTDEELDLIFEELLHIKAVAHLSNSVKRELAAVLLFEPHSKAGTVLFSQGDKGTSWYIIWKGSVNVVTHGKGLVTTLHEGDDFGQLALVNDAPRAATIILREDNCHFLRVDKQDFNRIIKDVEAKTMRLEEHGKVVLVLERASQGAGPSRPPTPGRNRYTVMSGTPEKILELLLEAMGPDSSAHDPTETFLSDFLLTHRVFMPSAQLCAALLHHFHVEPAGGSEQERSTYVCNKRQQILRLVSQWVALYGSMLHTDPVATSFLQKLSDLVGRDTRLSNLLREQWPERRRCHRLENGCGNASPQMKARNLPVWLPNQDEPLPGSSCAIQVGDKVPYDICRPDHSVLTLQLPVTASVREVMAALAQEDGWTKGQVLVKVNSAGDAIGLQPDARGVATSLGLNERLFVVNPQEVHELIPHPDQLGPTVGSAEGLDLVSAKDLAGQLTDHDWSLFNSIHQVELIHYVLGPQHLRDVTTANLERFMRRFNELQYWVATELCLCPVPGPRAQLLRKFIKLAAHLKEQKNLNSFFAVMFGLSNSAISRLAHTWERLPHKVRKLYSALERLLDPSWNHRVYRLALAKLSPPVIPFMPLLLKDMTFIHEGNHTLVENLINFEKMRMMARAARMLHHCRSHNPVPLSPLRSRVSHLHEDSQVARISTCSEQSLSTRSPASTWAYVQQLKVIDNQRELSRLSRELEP
# Chain of UniProt Q8WZA2 (Q8WZA2 whole entry, looked up): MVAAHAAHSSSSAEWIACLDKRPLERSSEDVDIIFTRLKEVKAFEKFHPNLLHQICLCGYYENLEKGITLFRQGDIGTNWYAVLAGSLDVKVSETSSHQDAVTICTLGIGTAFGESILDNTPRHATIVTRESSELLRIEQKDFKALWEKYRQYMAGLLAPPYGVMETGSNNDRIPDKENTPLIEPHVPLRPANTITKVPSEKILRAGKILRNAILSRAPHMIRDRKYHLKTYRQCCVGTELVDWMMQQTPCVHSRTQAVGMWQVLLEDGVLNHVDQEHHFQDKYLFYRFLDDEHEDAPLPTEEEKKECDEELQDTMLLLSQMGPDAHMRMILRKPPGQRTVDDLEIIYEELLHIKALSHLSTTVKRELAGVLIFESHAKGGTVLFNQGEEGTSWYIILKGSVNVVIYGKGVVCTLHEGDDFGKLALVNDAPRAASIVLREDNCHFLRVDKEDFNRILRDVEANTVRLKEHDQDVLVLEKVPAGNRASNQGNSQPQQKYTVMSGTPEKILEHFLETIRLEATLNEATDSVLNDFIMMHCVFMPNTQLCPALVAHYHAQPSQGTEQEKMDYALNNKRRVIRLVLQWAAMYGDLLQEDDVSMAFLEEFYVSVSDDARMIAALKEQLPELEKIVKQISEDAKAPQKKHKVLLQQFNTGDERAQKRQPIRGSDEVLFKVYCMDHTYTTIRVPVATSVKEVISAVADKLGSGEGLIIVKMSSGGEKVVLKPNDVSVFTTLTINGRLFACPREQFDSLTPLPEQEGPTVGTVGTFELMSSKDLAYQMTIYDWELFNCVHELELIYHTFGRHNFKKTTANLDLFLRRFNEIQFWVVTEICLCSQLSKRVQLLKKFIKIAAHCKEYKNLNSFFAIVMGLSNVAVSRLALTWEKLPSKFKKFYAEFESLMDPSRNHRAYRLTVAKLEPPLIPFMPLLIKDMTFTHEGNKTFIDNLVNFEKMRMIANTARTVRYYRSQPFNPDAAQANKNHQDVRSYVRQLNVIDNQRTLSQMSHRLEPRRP
# Chain of UniProt Q99816 (Q99816 whole entry, looked up, the tested form may be a part): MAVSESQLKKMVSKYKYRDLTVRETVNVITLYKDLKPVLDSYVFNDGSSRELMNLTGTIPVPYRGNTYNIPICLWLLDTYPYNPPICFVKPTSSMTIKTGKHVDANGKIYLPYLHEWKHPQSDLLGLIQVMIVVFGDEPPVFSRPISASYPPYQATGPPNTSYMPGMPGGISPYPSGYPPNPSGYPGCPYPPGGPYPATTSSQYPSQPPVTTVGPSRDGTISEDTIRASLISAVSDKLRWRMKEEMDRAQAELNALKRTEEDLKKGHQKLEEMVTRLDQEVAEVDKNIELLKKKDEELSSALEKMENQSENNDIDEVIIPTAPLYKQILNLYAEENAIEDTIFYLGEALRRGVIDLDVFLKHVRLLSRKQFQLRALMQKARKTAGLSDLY
Structure (SMILES),Potency [1],Potency [2],Potency [3],Potency [4],Potency [5],Potency [6],activation [5]
COc1ccc(-c2n[nH]c(C)c2-c2ccccc2OC)c(O)c1,"inconclusive [inhibitor, partial curve, poor fit]","inconclusive [activator, partial curve, poor fit]","inconclusive [activator, partial curve, poor fit]","inconclusive [inhibitor, partial curve]",inactive,,
COc1ccccc1N1N=C(C(=O)c2ccccc2)C2C(=O)N(c3ccc(Br)cc3)C(=O)C21 (centres undefined),inactive,"inconclusive [activator, partial curve, poor fit]","inconclusive [activator, full curve]",inactive,active: 17.8 µM,,
CCOc1ccc(-c2nn(-c3ccccc3)cc2/C=C2\SC(=S)N(C3CCS(=O)(=O)C3)C2=O)cc1 (centres undefined),inactive,"inconclusive [activator, partial curve, poor fit]","inconclusive [activator, partial curve]","inconclusive [inhibitor, single point]","inconclusive [activator, full curve, poor fit]","inconclusive [inhibitor, single point]",
Clc1ccc(C2Nc3cccc4cccc(c34)N2)c(Cl)c1,"inconclusive [inhibitor, full curve]","inconclusive [activator, partial curve, poor fit]","inconclusive [activator, partial curve, poor fit]","inconclusive [inhibitor, partial curve, poor fit]",,,inconclusive: 57.9% [activator]
COc1ccc(OC)c(/C=C/c2nc3ccccc3[nH]c2=O)c1,inactive,"inconclusive [activator, partial curve, poor fit]",active: 100 µM,active: 75.7 µM,"inconclusive [activator, full curve]",,
O=C(OCCN1C(=O)c2cccc3c(N4CCOCC4)ccc(c23)C1=O)c1cccc(Cl)c1,inactive,active: 89.1 µM,active: 100 µM,active: 75.7 µM,active: 3.16 µM,inactive,
OC[C@@H]1[C@@H](c2ccccc2)C(c2ccccc2)=NN1c1ccccc1,"inconclusive [inhibitor, partial curve, poor fit]","inconclusive [activator, partial curve, poor fit]","inconclusive [activator, partial curve, poor fit]","inconclusive [inhibitor, full curve]","inconclusive [activator, single point]",,
CC(=Nc1ccc(C)cc1C)c1sc2ccccc2c1O,inactive,"inconclusive [activator, partial curve, poor fit]",active: 100 µM,"inconclusive [inhibitor, full curve]",,inactive,inconclusive: 145% [activator]
O=C(O)CCCN1C(=O)/C(=C/c2cn(-c3ccccc3)nc2-c2cccs2)SC1=S,inactive,active: 112 µM,"inconclusive [activator, single point]","inconclusive [inhibitor, single point]",active: 15.8 µM,,
COc1ccc(C(NCC(=O)NC(C)c2ccc(Cl)cc2)c2ccccc2)cc1 (centres undefined),"inconclusive [inhibitor, partial curve, poor fit]","inconclusive [activator, partial curve, poor fit]","inconclusive [activator, partial curve, poor fit]","inconclusive [inhibitor, partial curve]",inactive,,
COCCN1C(=O)/C(=C/c2ccc(N3CCCC3)cc2)SC1=S,inactive,"inconclusive [activator, partial curve, poor fit]",active: 112 µM,"inconclusive [inhibitor, full curve, poor fit]","inconclusive [activator, full curve, poor fit]",,
N=C1/C(=C/c2coc3ccccc3c2=O)C(=O)N=C2SC(c3ccco3)=NN12,inactive,"inconclusive [activator, partial curve, poor fit]",inactive,inactive,active: 39.8 µM,"inconclusive [inhibitor, full curve]",
